{"source": "the supplement of paper PMC8728848", "binders": {"B1": {"name": "TbCVNHOb (Tuber borchii) (protein)", "chain": "GSHIGPYMSFYASSEDVRTIEEGGRTWLVGRARRADGSWQDIKLDLDNIIGNRDGHLTWGEQNFTQSASDIRFNFEGGSNVPVLRAKLRNAAGGEQESDLNLGERLTNNNGDLVFN"}}, "test_in_all_cases": "glycan array binding signal (z-score within array); higher = stronger binding", "conditions_in_all_cases": "glycan notation: IUPAC condensed, linker removed", "key": {"[1]": {"biological_target": "Gal6S(b1-4)Glc", "procedure,_shortened": "(§1)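 The binding signal is a Z-score computed within each array. Data were drawn from 3228 arrays in the Consortium for Functional Glycomics database, restricted to those with a known protein sequence. Scores were averaged over arrays of the same protein sequence at different concentrations or buffers, and over linkers, and negative values can be taken as non-binding.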"}, "[2]": {"biological_target": "Gal6S(b1-4)Glc6S", "procedure,_shortened": "as §1"}, "[3]": {"biological_target": "Gal6S(b1-4)GlcNAc", "procedure,_shortened": "as §1"}, "[4]": {"biological_target": "GalNAc(a1-3)Gal", "procedure,_shortened": "as §1"}, "[5]": {"biological_target": "GalNAc(a1-3)GalNAc", "procedure,_shortened": "as §1"}, "[6]": {"biological_target": "GalNAc(b1-3)Gal(a1-4)Gal(b1-4)GlcNAc", "procedure,_shortened": "as §1"}, "[7]": {"biological_target": "GalNAc(b1-4)GlcNAc", "procedure,_shortened": "as §1"}, "[8]": {"biological_target": "Glc(a1-4)Glc", "procedure,_shortened": "as §1"}, "[9]": {"biological_target": "Glc(a1-6)Glc(a1-6)Glc", "procedure,_shortened": "as §1"}, "[10]": {"biological_target": "Glc(b1-4)Glc", "procedure,_shortened": "as §1"}, "[11]": {"biological_target": "Glc(b1-6)Glc", "procedure,_shortened": "as §1"}, "[12]": {"biological_target": "GlcA(b1-3)Gal", "procedure,_shortened": "as §1"}, "[13]": {"biological_target": "GlcA(b1-6)Gal", "procedure,_shortened": "as §1"}, "[14]": {"biological_target": "GlcNAc(a1-3)Gal(b1-4)GlcNAc", "procedure,_shortened": "as §1"}, "[15]": {"biological_target": "GlcNAc(a1-6)Gal(b1-4)GlcNAc", "procedure,_shortened": "as §1"}, "[16]": {"biological_target": "GlcNAc(b1-2)Gal(b1-3)GlcNAc", "procedure,_shortened": "as §1"}, "[17]": {"biological_target": "GlcNAc(b1-2)Man(a1-3)[GlcNAc(b1-2)Man(a1-6)]Man(b1-4)GlcNAc(b1-4)GlcNAc", "procedure,_shortened": "as §1"}, "[18]": {"biological_target": "GlcNAc(b1-3)Gal", "procedure,_shortened": "as §1"}, "[19]": {"biological_target": "GlcNAc(b1-3)Gal(b1-3)GalNAc", "procedure,_shortened": "as §1"}, "[20]": {"biological_target": "GlcNAc(b1-3)Gal(b1-4)Glc", "procedure,_shortened": "as §1"}, "[21]": {"biological_target": "GlcNAc(b1-3)Gal(b1-4)GlcNAc", "procedure,_shortened": "as §1"}, "[22]": {"biological_target": "GlcNAc(b1-3)Gal(b1-4)GlcNAc(b1-3)Gal(b1-4)GlcNAc", "procedure,_shortened": "as §1"}, "[23]": {"biological_target": "GlcNAc(b1-3)GalNAc", "procedure,_shortened": "as §1"}, "[24]": {"biological_target": "GlcNAc(b1-3)[GlcNAc(b1-4)][GlcNAc(b1-6)]GlcNAc", "procedure,_shortened": "as §1"}, "[25]": {"biological_target": "GlcNAc(b1-3)[GlcNAc(b1-6)]Gal(b1-4)GlcNAc", "procedure,_shortened": "as §1"}, "[26]": {"biological_target": "GlcNAc(b1-3)[GlcNAc(b1-6)]GlcNAc", "procedure,_shortened": "as §1"}, "[27]": {"biological_target": "GlcNAc(b1-4)Gal(b1-4)GlcNAc", "procedure,_shortened": "as §1"}, "[28]": {"biological_target": "GlcNAc(b1-4)GlcNAc(b1-4)GlcNAc", "procedure,_shortened": "as §1"}, "[29]": {"biological_target": "GlcNAc(b1-4)GlcNAc(b1-4)GlcNAc(b1-4)GlcNAc(b1-4)GlcNAc", "procedure,_shortened": "as §1"}, "[30]": {"biological_target": "GlcNAc(b1-4)GlcNAc(b1-4)GlcNAc(b1-4)GlcNAc(b1-4)GlcNAc(b1-4)GlcNAc", "procedure,_shortened": "as §1"}, "[31]": {"biological_target": "GlcNAc(b1-4)[GlcNAc(b1-6)]GalNAc", "procedure,_shortened": "as §1"}, "[32]": {"biological_target": "GlcNAc(b1-6)Gal(b1-4)GlcNAc", "procedure,_shortened": "as §1"}, "[33]": {"biological_target": "GlcNAc(b1-6)GalNAc", "procedure,_shortened": "as §1"}, "[34]": {"biological_target": "Kdn(a2-3)Gal(b1-3)GlcNAc", "procedure,_shortened": "as §1"}, "[35]": {"biological_target": "Kdn(a2-3)Gal(b1-4)GlcNAc", "procedure,_shortened": "as §1"}, "[36]": {"biological_target": "Man(a1-2)Man(a1-2)Man(a1-3)Man", "procedure,_shortened": "as §1"}, "[37]": {"biological_target": "Man(a1-2)Man(a1-2)Man(a1-3)[Man(a1-2)Man(a1-3)[Man(a1-2)Man(a1-6)]Man(a1-6)]Man(b1-4)GlcNAc(b1-4)GlcNAc", "procedure,_shortened": "as §1"}, "[38]": {"biological_target": "Man(a1-2)Man(a1-2)Man(a1-3)[Man(a1-2)Man(a1-6)[Man(a1-3)]Man(a1-6)]Man(b1-4)GlcNAc(b1-4)GlcNAc", "procedure,_shortened": "as §1"}, "[39]": {"biological_target": "Man(a1-2)Man(a1-2)Man(a1-6)[Man(a1-3)]Man", "procedure,_shortened": "as §1"}, "[40]": {"biological_target": "Man(a1-2)Man(a1-3)Man", "procedure,_shortened": "as §1"}, "[41]": {"biological_target": "Man(a1-2)Man(a1-3)[Man(a1-2)Man(a1-6)]Man", "procedure,_shortened": "as §1"}, "[42]": {"biological_target": "Man(a1-2)Man(a1-3)[Man(a1-3)[Man(a1-6)]Man(a1-6)]Man(b1-4)GlcNAc(b1-4)GlcNAc", "procedure,_shortened": "as §1"}, "[43]": {"biological_target": "Man(a1-2)Man(a1-3)[Man(a1-6)]Man(a1-6)[Man(a1-2)Man(a1-3)]Man(b1-4)GlcNAc(b1-4)GlcNAc", "procedure,_shortened": "as §1"}, "[44]": {"biological_target": "Man(a1-3)[Man(a1-6)]Man", "procedure,_shortened": "as §1"}, "[45]": {"biological_target": "Man(a1-3)[Man(a1-6)]Man(a1-6)[Man(a1-3)]Man(b1-4)GlcNAc(b1-4)GlcNAc", "procedure,_shortened": "as §1"}, "[46]": {"biological_target": "Man(a1-3)[Man(a1-6)]Man(b1-4)GlcNAc(b1-4)GlcNAc", "procedure,_shortened": "as §1"}, "[47]": {"biological_target": "Man(b1-4)GlcNAc", "procedure,_shortened": "as §1"}, "[48]": {"biological_target": "Neu5Ac(a2-3)Gal", "procedure,_shortened": "as §1"}, "[49]": {"biological_target": "Neu5Ac(a2-3)Gal(b1-3)GalNAc", "procedure,_shortened": "as §1"}}, "note": "Some of the results follow.", "data": [{"binder": "B1", "values": [{"measurement": "glycan array binding signal (z-score)", "setting": "[1]", "value": 0.32}, {"measurement": "glycan array binding signal (z-score)", "setting": "[2]", "value": -0.291}, {"measurement": "glycan array binding signal (z-score)", "setting": "[3]", "value": -0.436}, {"measurement": "glycan array binding signal (z-score)", "setting": "[4]", "value": -0.318}, {"measurement": "glycan array binding signal (z-score)", "setting": "[5]", "value": -0.388}, {"measurement": "glycan array binding signal (z-score)", "setting": "[6]", "value": 1.86}, {"measurement": "glycan array binding signal (z-score)", "setting": "[7]", "value": -0.366}, {"measurement": "glycan array binding signal (z-score)", "setting": "[8]", "value": -0.337}, {"measurement": "glycan array binding signal (z-score)", "setting": "[9]", "value": 0.422}, {"measurement": "glycan array binding signal (z-score)", "setting": "[10]", "value": 0.042}, {"measurement": "glycan array binding signal (z-score)", "setting": "[11]", "value": 0.333}, {"measurement": "glycan array binding signal (z-score)", "setting": "[12]", "value": 1.11}, {"measurement": "glycan array binding signal (z-score)", "setting": "[13]", "value": -0.483}, {"measurement": "glycan array binding signal (z-score)", "setting": "[14]", "value": -0.185}, {"measurement": "glycan array binding signal (z-score)", "setting": "[15]", "value": -0.201}, {"measurement": "glycan array binding signal (z-score)", "setting": "[16]", "value": -0.402}, {"measurement": "glycan array binding signal (z-score)", "setting": "[17]", "value": -0.286}, {"measurement": "glycan array binding signal (z-score)", "setting": "[18]", "value": -0.16}, {"measurement": "glycan array binding signal (z-score)", "setting": "[19]", "value": -0.412}, {"measurement": "glycan array binding signal (z-score)", "setting": "[20]", "value": 0.325}, {"measurement": "glycan array binding signal (z-score)", "setting": "[21]", "value": -0.066}, {"measurement": "glycan array binding signal (z-score)", "setting": "[22]", "value": -0.388}, {"measurement": "glycan array binding signal (z-score)", "setting": "[23]", "value": -0.177}, {"measurement": "glycan array binding signal (z-score)", "setting": "[24]", "value": -0.077}, {"measurement": "glycan array binding signal (z-score)", "setting": "[25]", "value": -0.551}, {"measurement": "glycan array binding signal (z-score)", "setting": "[26]", "value": -0.365}, {"measurement": "glycan array binding signal (z-score)", "setting": "[27]", "value": 0.438}, {"measurement": "glycan array binding signal (z-score)", "setting": "[28]", "value": -0.364}, {"measurement": "glycan array binding signal (z-score)", "setting": "[29]", "value": -0.165}, {"measurement": "glycan array binding signal (z-score)", "setting": "[30]", "value": -0.463}, {"measurement": "glycan array binding signal (z-score)", "setting": "[31]", "value": 0.22}, {"measurement": "glycan array binding signal (z-score)", "setting": "[32]", "value": 0.14}, {"measurement": "glycan array binding signal (z-score)", "setting": "[33]", "value": -0.337}, {"measurement": "glycan array binding signal (z-score)", "setting": "[34]", "value": -0.56}, {"measurement": "glycan array binding signal (z-score)", "setting": "[35]", "value": 0.108}, {"measurement": "glycan array binding signal (z-score)", "setting": "[36]", "value": 5.4}, {"measurement": "glycan array binding signal (z-score)", "setting": "[37]", "value": 0.34}, {"measurement": "glycan array binding signal (z-score)", "setting": "[38]", "value": -0.449}, {"measurement": "glycan array binding signal (z-score)", "setting": "[39]", "value": 2.41}, {"measurement": "glycan array binding signal (z-score)", "setting": "[40]", "value": -0.427}, {"measurement": "glycan array binding signal (z-score)", "setting": "[41]", "value": -0.572}, {"measurement": "glycan array binding signal (z-score)", "setting": "[42]", "value": -0.019}, {"measurement": "glycan array binding signal (z-score)", "setting": "[43]", "value": -0.281}, {"measurement": "glycan array binding signal (z-score)", "setting": "[44]", "value": -0.322}, {"measurement": "glycan array binding signal (z-score)", "setting": "[45]", "value": -0.383}, {"measurement": "glycan array binding signal (z-score)", "setting": "[46]", "value": -0.197}, {"measurement": "glycan array binding signal (z-score)", "setting": "[47]", "value": 0.106}, {"measurement": "glycan array binding signal (z-score)", "setting": "[48]", "value": -0.478}, {"measurement": "glycan array binding signal (z-score)", "setting": "[49]", "value": 0.202}]}]}
